Consider 31 sequences from publication PMC12820563, “FoxP3 forms a head-to-head dimer in vivo and stabilizes its multimerization on adjacent microsatellites”.

The list shows a part of the results.

The experiment addresses T1, MBP-FoxP1dN (Mus musculus, UniProt P58462 326-579).
T1 sequence: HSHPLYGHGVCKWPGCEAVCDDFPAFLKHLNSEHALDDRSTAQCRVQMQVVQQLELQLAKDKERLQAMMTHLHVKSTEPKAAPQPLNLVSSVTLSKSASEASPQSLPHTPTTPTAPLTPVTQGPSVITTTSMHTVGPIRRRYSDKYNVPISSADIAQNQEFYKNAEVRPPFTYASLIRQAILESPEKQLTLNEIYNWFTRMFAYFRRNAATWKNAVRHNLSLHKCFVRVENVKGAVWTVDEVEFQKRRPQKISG
Kind of experiment: PD-seq (MBP pull-down with sequencing); 20 mM Tris-HCl pH 7.5, 100 mM NaCl, 1.5 mM MgCl2, 0.4 uM protein, 0.1 uM dsDNA library, 30 min, room temperature, amylose pull-down; high values mean tight binding. The conditions noted are these: protein: recombinant; tags: His6-MBP; chain copies: 2; dsDNA, one strand shown. In short, it runs like this:
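E. coli-expressed mouse FoxP3 or FoxP1 fragment, N-terminus removed and tagged with His6-MBP, was used at 0.4 µM against 0.1 µM of a Klenow-filled degenerate double-stranded DNA library. After 30 min at room temperature in Tris pH 7.5 buffer with NaCl and MgCl2, complexes were pulled down on amylose resin and washed three times. Binding is pull-down over input reads-per-million enrichment from pooled replicates of the proteinase K-released, PCR-barcoded, Illumina-sequenced DNA.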
As for “GATGATTGTTCTCCCAGCTGATGAATTGTCTTGCTCGAGTAAACAAATTTTCCTAATCTTTCTGTTCAAGCGCCATCTAC”, the binding signal is 0.934 RPM ratio (pull-down/input).
Under “GATGATTGTTCTCCCAGCTGATGAATTCGGTCTCTCGAGTAAACAAATTTTCCTAATCTTTCTGTTCAAGCGCCATCTAC” stands 0.739 RPM ratio (pull-down/input).
“GATGATTGTTCTCCCAGCTGATGAATTCGACTTCTCGAGTAAACAAATTTTCCTAATCTTTCTGTTCAAGCGCCATCTAC”: the binding signal was 0.822 RPM ratio (pull-down/input).
Under “GATGATTGTTCTCCCAGCTGATGAATTAGGGGCATCGAGTAAACAAATTTTCCTAATCTTTCTGTTCAAGCGCCATCTAC” stands 1 RPM ratio (pull-down/input); under “GATGATTGTTCTCCCAGCTGATGAATTTTAGTTGTCGAGTAAACAAATTTTCCTAATCTTTCTGTTCAAGCGCCATCTAC”, 1.52 RPM ratio (pull-down/input); under “GATGATTGTTCTCCCAGCTGATGAATTCCCGAAATCGAGTAAACAAATTTTCCTAATCTTTCTGTTCAAGCGCCATCTAC”, 0.952 RPM ratio (pull-down/input).
Under “GATGATTGTTCTCCCAGCTGATGAATTCAATCAATCGAGTAAACAAATTTTCCTAATCTTTCTGTTCAAGCGCCATCTAC” stands 1.02 RPM ratio (pull-down/input); under “GATGATTGTTCTCCCAGCTGATGAATTCCCTATCTCGAGTAAACAAATTTTCCTAATCTTTCTGTTCAAGCGCCATCTAC”, 0.782 RPM ratio (pull-down/input).
Under “GATGATTGTTCTCCCAGCTGATGAATTTTTGAACTCGAGTAAACAAATTTTCCTAATCTTTCTGTTCAAGCGCCATCTAC” stands 0.882 RPM ratio (pull-down/input); under “GATGATTGTTCTCCCAGCTGATGAATTTTGCCAATCGAGTAAACAAATTTTCCTAATCTTTCTGTTCAAGCGCCATCTAC”, 1.06 RPM ratio (pull-down/input).
“GATGATTGTTCTCCCAGCTGATGAATTGTCACTTTCGAGTAAACAAATTTTCCTAATCTTTCTGTTCAAGCGCCATCTAC”: the binding signal was 1.04 RPM ratio (pull-down/input).
For “GATGATTGTTCTCCCAGCTGATGAATTGCAAAGATCGAGTAAACAAATTTTCCTAATCTTTCTGTTCAAGCGCCATCTAC” the value was 1.24 RPM ratio (pull-down/input); for “GATGATTGTTCTCCCAGCTGATGAATTCCCTCCCTCGAGTAAACAAATTTTCCTAATCTTTCTGTTCAAGCGCCATCTAC”, 0.787 RPM ratio (pull-down/input).
For “GATGATTGTTCTCCCAGCTGATGAATTCAAGATGTCGAGTAAACAAATTTTCCTAATCTTTCTGTTCAAGCGCCATCTAC” the value was 0.87 RPM ratio (pull-down/input); for “GATGATTGTTCTCCCAGCTGATGAATTACGTCGATCGAGTAAACAAATTTTCCTAATCTTTCTGTTCAAGCGCCATCTAC”, 1.04 RPM ratio (pull-down/input); for “GATGATTGTTCTCCCAGCTGATGAATTGCAGGGCTCGAGTAAACAAATTTTCCTAATCTTTCTGTTCAAGCGCCATCTAC”, 0.88 RPM ratio (pull-down/input).
For “GATGATTGTTCTCCCAGCTGATGAATTTAACTTATCGAGTAAACAAATTTTCCTAATCTTTCTGTTCAAGCGCCATCTAC” the value was 0.953 RPM ratio (pull-down/input); for “GATGATTGTTCTCCCAGCTGATGAATTGCCTCAGTCGAGTAAACAAATTTTCCTAATCTTTCTGTTCAAGCGCCATCTAC”, 0.999 RPM ratio (pull-down/input).
Consider “GATGATTGTTCTCCCAGCTGATGAATTAGCAGTCTCGAGTAAACAAATTTTCCTAATCTTTCTGTTCAAGCGCCATCTAC”, for which the binding signal is 0.877 RPM ratio (pull-down/input).
For “GATGATTGTTCTCCCAGCTGATGAATTGCCCTAATCGAGTAAACAAATTTTCCTAATCTTTCTGTTCAAGCGCCATCTAC” the value was 1.03 RPM ratio (pull-down/input); for “GATGATTGTTCTCCCAGCTGATGAATTCTAAGCCTCGAGTAAACAAATTTTCCTAATCTTTCTGTTCAAGCGCCATCTAC”, 0.808 RPM ratio (pull-down/input); for “GATGATTGTTCTCCCAGCTGATGAATTACCGAATTCGAGTAAACAAATTTTCCTAATCTTTCTGTTCAAGCGCCATCTAC”, 1.04 RPM ratio (pull-down/input).
Under “GATGATTGTTCTCCCAGCTGATGAATTGAGACCGTCGAGTAAACAAATTTTCCTAATCTTTCTGTTCAAGCGCCATCTAC” stands 0.852 RPM ratio (pull-down/input).
Regarding “GATGATTGTTCTCCCAGCTGATGAATTTCGTATGTCGAGTAAACAAATTTTCCTAATCTTTCTGTTCAAGCGCCATCTAC”, the binding signal is 0.993 RPM ratio (pull-down/input).
As to “GATGATTGTTCTCCCAGCTGATGAATTCCCCAATTCGAGTAAACAAATTTTCCTAATCTTTCTGTTCAAGCGCCATCTAC”, the binding signal was 0.882 RPM ratio (pull-down/input).
On to “GATGATTGTTCTCCCAGCTGATGAATTAATACGATCGAGTAAACAAATTTTCCTAATCTTTCTGTTCAAGCGCCATCTAC”, for which the binding signal is 1.08 RPM ratio (pull-down/input).
Under “GATGATTGTTCTCCCAGCTGATGAATTACATGAATCGAGTAAACAAATTTTCCTAATCTTTCTGTTCAAGCGCCATCTAC” stands 1.4 RPM ratio (pull-down/input); under “GATGATTGTTCTCCCAGCTGATGAATTTTATCGGTCGAGTAAACAAATTTTCCTAATCTTTCTGTTCAAGCGCCATCTAC”, 0.946 RPM ratio (pull-down/input); under “GATGATTGTTCTCCCAGCTGATGAATTCCGTTACTCGAGTAAACAAATTTTCCTAATCTTTCTGTTCAAGCGCCATCTAC”, 0.912 RPM ratio (pull-down/input).
As to “GATGATTGTTCTCCCAGCTGATGAATTACACCAGTCGAGTAAACAAATTTTCCTAATCTTTCTGTTCAAGCGCCATCTAC”, the binding signal was 1.06 RPM ratio (pull-down/input).
For “GATGATTGTTCTCCCAGCTGATGAATTGTAAATGTCGAGTAAACAAATTTTCCTAATCTTTCTGTTCAAGCGCCATCTAC” the value was 1.2 RPM ratio (pull-down/input).
